Values joined by “and” are separate entries in the source; they are usually repeats but may differ in a detail not shown here. Equal entries are not always repeated. Among all 48,000 compounds or so, about 120 (0.25%) were called active. About 4% were inconclusive and are not listed. Calls come from the whole dose curve; as a rule, active = well fitted activation curve with a large enough effect; inconclusive = small, poorly fitted or top-dose-only effect, or another doubt; inactive = no such curve, though single readings can be large or run the other way. Some of the results follow.
Experiment: Primary qHTS for Identification of Small Molecule Activators of Huntingtin-Antisense Promoter Activity; note: nearly all actives have a fitted effect of over 55% in size
Details: HEK293 HTT-AS promoter firefly luciferase reporter, 24 h
Method in brief: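 Firefly luciferase readout (Dual-Glo, 10 min RT) after 24 h, 37 °C compound exposure (final up to 57.5 uM) of HEK293 reporter cells cultured 24 h beforehand; PTC124 at 50 uM final as control inhibitor; activity scaled vehicle 0%, zero RLU -100%.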

[1] = at 57.5 µM (top of the series) unless noted

Cc1cccc(-c2nc(CN3C(=O)CN=C(c4ccccc4)c4ccccc43)c(C)o2)c1
activity change, positive = activation [1]: inactive: -45%

CCOC(=O)NC(O)C(Cl)(Cl)Cl (stereo not drawn)
activity change, positive = activation [1]: inactive: -3.19%

COc1ccc(C(c2ccc(OC)cc2)C(Cl)(Cl)Cl)cc1
activity change, positive = activation [1]: inactive: -8.88% [at 116 µM, percent change from vehicle, -100% = no light]

Cc1ccc(-n2c(/C=C\c3ccc(F)cc3)nc3ccccc3c2=O)cc1Cl
activity change, positive = activation [1]: inactive: 12.1% [at 57.5 µM, percent change from vehicle, -100% = no light]

CCOC(=O)C(c1c(O)c2ccccc2oc1=O)c1c(O)c2ccccc2oc1=O
activity change, positive = activation [1]: inactive: -21.1% [at 57.5 µM, percent change from vehicle, -100% = no light]

Cn1c(=O)n(C)c2cc(CNCCc3ccc(F)cc3)ccc21
activity change, positive = activation [1]: inactive: -10.2% [at 57.5 µM, percent change from vehicle, -100% = no light]

Cc1ccc(NC(=O)Cn2cc(C(=O)c3ccccc3)c3ccccc32)cc1
activity change, positive = activation [1]: inactive: -43.8%

Cc1ccc2nc(NC(=O)c3cccn(Cc4ccc(Cl)cc4)c3=O)sc2c1
activity change, positive = activation [1]: inactive: -17.1% [at 57.5 µM, percent change from vehicle, -100% = no light]

COC[C@@H](NC(C)=O)C(=O)NCc1ccccc1
activity change, positive = activation [1]: inactive: -7.96%

Cc1ccc(Cl)cc1NC(=O)N(Cc1ccc2c(c1)OCO2)C1CCN(Cc2ccccc2)CC1
activity change, positive = activation [1]: inactive: -29.1%

CN1C(=O)CCS(=O)(=O)C1c1ccc(Cl)cc1 (stereo not drawn)
activity change, positive = activation [1]: inactive: -28.6% and inactive: -5.25%

CN(C)[C@@H]1C(=O)C(C(N)=O)=C(O)[C@@]2(O)C(=O)C3=C(O)c4c(O)cccc4[C@@](C)(O)[C@H]3[C@H](O)[C@@H]12
activity change, positive = activation [1]: inactive: -9.23%

Cc1cccc(Cc2cnc[nH]2)c1C
activity change, positive = activation [1]: inactive: -15%

c1ccc2c(c1)sc1ccccc12
activity change, positive = activation [1]: inactive: -1.84%

O=P1(N(CCCl)CCCl)NCCCO1 (stereo not drawn)
activity change, positive = activation [1]: inactive: -12% and inactive: -9.35%

CC(C)(C)CC(C)(C)c1ccc(O)cc1
activity change, positive = activation (at 57.5 µM (top of the series)): inactive: -11% | activity change, positive = activation (at 116 µM (top of the series)): inactive: -20.4%

O=C(COc1cc(Cl)ccc1Cl)Nc1ccc(Cl)cc1C(=O)c1ccccc1
activity change, positive = activation [1]: inactive: -11.3%

NC(=O)CS(=O)C(c1ccccc1)c1ccccc1 (stereo not drawn)
activity change, positive = activation [1]: inactive: 1.4%

Oc1ccccc1-c1ccccc1
activity change, positive = activation [1]: inactive: -4.2%

CCCCCCCCCC(CC)c1ccc(S(=O)(=O)O)cc1 (stereo not drawn)
activity change, positive = activation [1]: inactive: -17% [at 116 µM]

COc1ccc(NC(=O)c2sc3nc4c(cc3c2N)N2CCC4CC2)cc1OC
activity change, positive = activation [1]: inactive: -4.45%

Cc1cccc(CN2CC=C(c3noc(CCC(=O)Nc4ccc(C)c(F)c4)n3)CC2)c1
activity change, positive = activation [1]: inactive: -16.6%

CC(=O)NC1CCSC1=O (stereo not drawn)
activity change, positive = activation [1]: inactive: 0.287%

O=C(COc1ccccc1F)N1CCN(Cc2cc(=O)n3nc(-c4ccccc4Cl)sc3n2)CC1
activity change, positive = activation [1]: inactive: -17.6%

CCN(CC)CCN1C(=O)CN=C(c2ccccc2F)c2cc(Cl)ccc21
activity change, positive = activation [1]: inactive: -3.34%

N#C[C@H](O[C@@H]1O[C@H](CO[C@@H]2O[C@H](CO)[C@H](O)[C@H](O)[C@H]2O)[C@H](O)[C@H](O)[C@H]1O)c1ccccc1
activity change, positive = activation [1]: inactive: -30.4%

O=C(NC(O)C(Cl)(Cl)Cl)NC(O)C(Cl)(Cl)Cl (stereo not drawn)
activity change, positive = activation [1]: inactive: -2.24%

Cc1ccc2c(c1)C(Cc1nc3ccccc3c(=O)n1-c1ccc(Br)cc1)C(=O)N2 (stereo not drawn)
activity change, positive = activation [1]: inactive: -15.3%

CC1(C)CC/C(=C/c2ccc(Cl)cc2)C1(O)Cn1cncn1 (stereo not drawn)
activity change, positive = activation [1]: inactive: -24% [at 116 µM]

COc1ccc2c(c1OC)C(=O)O[C@H]2[C@@H]1c2cc3c(cc2CCN1C)OCO3
activity change, positive = activation [1]: inactive: -0.371%

O=C(Nc1ccc(F)c([N+](=O)[O-])c1)c1cccn(Cc2ccccc2)c1=O
activity change, positive = activation [1]: inactive: -2.23% [at 57.5 µM, percent change from vehicle, -100% = no light]

Cc1cccc(OCC(=O)N2CCN(CCc3ccccn3)CC2)c1
activity change, positive = activation [1]: inactive: 8.7% [at 11.5 µM]

COP(=S)(OC)Oc1ccc(Sc2ccc(OP(=S)(OC)OC)cc2)cc1
activity change, positive = activation [1]: inactive: -9.43%

CCCCCCC(=O)CCCCCC/C=C/C[C@@H](O)[C@H](O)[C@@](N)(CO)C(=O)O
activity change, positive = activation [1]: inactive: -6.45% [at 25.1 µM]

COc1cccc([C@@]2(O)CCCC[C@@H]2CN(C)C)c1
activity change, positive = activation [1]: inactive: -1.56%

CCC(=O)O[C@H]1CC[C@H]2[C@@H]3CCC4=CC(=O)CC[C@]4(C)[C@H]3CC[C@]12C
activity change, positive = activation [1]: inactive: -11.8%

CO[C@]12CC[C@@]3(C[C@@H]1[C@](C)(O)C(C)(C)C)[C@@H]1Cc4ccc(O)c5c4[C@@]3(CCN1CC1CC1)[C@H]2O5
activity change, positive = activation [1]: inactive: -36.6% [at 116 µM]

CCCCc1nn2c(=O)cc(COC(=O)Cc3ccccc3)nc2s1
activity change, positive = activation [1]: inactive: 1.75%

Cc1sc2c(c1C)C(c1ccc(Cl)cc1)=N[C@@H](CC(=O)OC(C)(C)C)c1nnc(C)n1-2
activity change, positive = activation [1]: inactive: -30.8%

C[C@]12CC[C@H](O)CC1=CC[C@H]1[C@H]3CCC(=O)[C@@]3(C)CC[C@@H]12
activity change, positive = activation [1]: inactive: -27.5%

CCN1CCCC1CNC(=O)C(O)(c1ccccc1)c1ccccc1 (stereo not drawn)
activity change, positive = activation [1]: inactive: -1.69%

C=Cc1ccc(Cn2c(C)c(CNCCc3cc(OC)ccc3OC)c(C(=O)O)c2C)cc1
activity change, positive = activation [1]: inactive: -11.5% [at 57.5 µM, percent change from vehicle, -100% = no light]
